Assay results taken from the RNAGym collection of RNA variant scans (doi:10.7554/elife.90254).
The source gives no read counts; variants with many changes may rest on few reads.

B1: LINE1-full (parent)
chain: UACGUAGGUGGUUUUCCCCUGAUAGUGCUAAGGGGGCCUGGAAGUUUGGACUGGGCAGAGCUCAACACAGCGUGGCAAAGUGGCUGUGGCUAGACUGCCUCUCUGGAUUCCUCGUCACUCAGCAGGGCAUCUCUGAGAGAAAUGCC

Variants of: B1
Experiment: self-cleavage, relative activity (ratio to wild type); higher = more cleavage; in vitro, sequencing; the parent is a self-cleaving ribozyme

| Variant | self-cleavage |
| --- | --- |
| U73C U112C U130A A138U | 1.75 |
| U29C U39C U73C A124U U143A | 0 |
| U62A U112A A142G | 0.09 |
| A57U A107U A142G | 0.19 |
| A43G A65G U130C | 0 |
| A2G U45C A64G U130A A136U | 0 |
| U5A U14C U23C A69U U130C | 0.27 |
| A129U A140G U143G | 0.97 |
| U62A U73A A129G | 0.04 |
| A64G U96C A136G | 0 |
| A57G U100A U109C | 0 |
| U9C U100A U119C | 0.82 |
| U52C U130A A138G | 0.89 |
| U20G C110A A140G | 1.16 |
| A22U A57U A94G | 0.18 |
| U39A C98A U115C | 0.11 |
| A69G U73A A92G | 0.33 |
| A64U C84U U134A A141G | 0.11 |
| G40A U52C G53A U100C | 0.83 |
| G4U A67U A92U U102C U132C | 0.17 |
| A57U C71G U96C | 0.02 |

| Variant | self-cleavage |
| --- | --- |
| A24G A42G U108C | 1.18 |
| G21A G72A A77C | 0.9 |
| C17A U20C A65G U91A A107G A140G | 0 |
| A6G G34U U73A | 0.94 |
| U12G C38U U52A A77G U85A G97A U130A | 0.22 |
| U47A G70A U130C | 0.16 |
| U14C A67G C131G A142G | 0.61 |
| U108C U119A A140G | 1.38 |
| C19G U62C A64G A92G U96A | 0 |
| U9A U45C A65G A121G | 0 |
| U46C A65G U85A U115C A141C A142G | 0 |
| G25A A30G U134A A138G | 1.62 |
| U73A A107G A136U | 2.3 |
| U45C A57U U73A U81A A142G | 0.06 |
| C56U U85C U87C | 0.05 |
| U73A U102C G105A A121U A124U | 2.06 |
| G32C U102C A142G | 2.9 |
| G40U U134A G137A U143C | 0.97 |
| U52A A79G U119C C145A | 0.22 |
| U29C A67U U100C U134C | 0.3 |
| G36U U87A G89A | 0.04 |

| Variant | self-cleavage |
| --- | --- |
| U73A C101U U115C | 1.91 |
| U20A A43G A69C U108C | 0 |
| U12C G74U A78G | 0.44 |
| A24U A42G C84U A129U | 0.11 |
| U14A U52A A142G | 1.13 |
| U46A G49U A142G | 1.14 |
| U39C A64G U87C | 0 |
| U73A A107G U130A A141U | 2.11 |
| A6U U20C U81A U112C G122C | 2.54 |
| U13C A30G U108C | 1.84 |
| G4U A78G A140G | 0.95 |
| U102A U104A A138U | 1.37 |
| U96C A140G A142G | 0.13 |
| U9A U23A U46G | 0.9 |
| U20A G114A U130A | 0.67 |
| A42G A79C A117U A121G A140G | 0.92 |
| U14C U20C C110U U112C A117G A138G | 0.38 |
| U9C U20A U134A | 0.82 |
| C17U A22G G41A | 0.61 |
| U20C A31U U62C A78C | 0.21 |
| G11A U15C A142G | 1.24 |

| Variant | self-cleavage |
| --- | --- |
| G36A A78G U85C | 0.09 |
| A77U A94G U112C | 0.09 |
| U26C A57G U100C A117U | 0.84 |
| A69G U96C G127A | 0 |
| A2U U9C U62A | 0.15 |
| U14C U81A U87C A92G A124G A141G | 1.15 |
| U73A A107G U112A A136U | 1.92 |
| U46A A136C A141G | 1.48 |
| U14C U52A G60C C110A A124U U130A | 0.04 |
| A2G U52A A138G | 0.78 |
| U46A A65C A77G | 0 |
| U20A A64G U102C | 0.34 |
| U23C U119C A121C A124U | 1.67 |
| A6G G7U U15C G35A A65G | 0.12 |
| G7A A64G A69U A124G | 0 |
| U39C A79G A94U | 0.39 |
| U62C A77G A121G | 0.13 |
| U15C A50G U130C U143C | 2.3 |
| U5C A67G A107G A136C | 0 |
| U12G U39A G53A | 0.68 |
| U102C A117U A138G | 1.21 |
